{
  "source": "patent US9120774B2",
  "about": "(University of Kansas, priority 2009, dated 2015)",
  "key": {"[1]": {"tested_on": "SKBr3 breast cancer cell lines", "experiment": "Cell growth / cytotoxicity in SKBr3 cells (MTT)", "format": "cell-based", "conditions": "varying concentrations and time", "procedure": "FIG. 14 are graphs showing the percent of cytotoxicity of DHN1 and DHN2 on SKBr3 cells at varying concentrations and time.\nN-terminal inhibitors of Hsp90 may induce the degradation of client proteins at concentrations that mirror that needed for anti-proliferative activity. Therefore, both DHN1 and DHN2 were evaluated for their ability to inhibit the growth of SKBr3 breast cancer cell lines. Cell growth was monitored using methylthiazol-tetrazolium (MTT). Briefly, cells (5×10^3) were plated in 96-well microtiter plates (Costar) in a volume of 0.1 mL DMEM containing 0.1% FBS. After 12 hours, cells were exposed to drugs (final volume 0.2 mL/well). At various times After drug addition, 20 μL of 5 mg/mL MTT solution in PBS was added to each well for four hours. After removal of medium, 0.1 mL of DMSO was added to each well to dissolve the formazan crystals. Absorbance at 562 nm was determined using an ELx 808 microplate reader (Bio-Tek, Winooski Vt.). Six wells were assayed at each concentration and the mean absorbance was determined. Absorbance at 562 nm is directly proportional to viable cell number."}, "[2]": {"tested_on": "primary cortical neurons", "experiment": "Toxicity of drug alone in neuronal cells (Live-Dead assay)", "format": "cell-based", "conditions": "rat", "from_the_text": "More specifically, primary cortical neurons were recovered from embryonic day 18 rat brains as described previously (Michaelis et al., Immunological Localization And Kinetic Characterization Of A Na+/Ca2+Exchanger In Neuronal And Nonneuronal Cells, Brain Res. 661 104-116 (1994)). Briefly, about 10 to 16 brains were removed from fetuses delivered by cesarean section, and the cortices dissected out. The neurons were isolated and suspended in DMEM/F12 supplemented with 10% FBS and plated on sterile dishes or cover slips coated with 10 μg/ml poly-D-lysine and 5 μg/ml mouse laminin. […] The effects of KU-1/A4, GA, Aβ, or the indicated combinations on neuronal viability were determined by monitoring cell survival using the Live-Dead assay as previously described. […] Digital images from 6 fields per dish were captured, and the number of viable (green) and dead (red) cells counted. All experiments were conducted with duplicate dishes from at least two neuronal preparations for each treatment, with about 1,000 cells analyzed/treatment condition. The data are expressed as the fraction of viable cells calculated from the total number of neurons counted under each treatment condition. The significance of differences between cultures exposed to various treatment conditions was determined using Student's t-test."}, "[3]": {"tested_on": "primary cortical neurons exposed to Aβ25-35", "experiment": "Protection against Aβ-induced toxicity in primary neurons (Live-Dead assay)", "format": "cell-based", "conditions": "Rattus norvegicus, Primary cortical neuron, read-out: EC50, prevention of Aβ-induced toxicity", "procedure": "In this example, the neuroprotective effects of KU-1/A4 were determined in primary neurons derived from embryonic rat brain exposed to Aβ (10 μM) in the presence or absence of the test compound for 48 hours. The percentage of surviving neurons was determined by labeling with the fluorescent dyes calcein-AM and propidium iodide as previously described. […] The numbers of calcein-labeled live cells and propidium iodide-labeled dead neurons in several fields were visualized via fluorescence microscopy and counted as described.\nBriefly, about 10 to 16 brains were removed from fetuses delivered by cesarean section, and the cortices dissected out. […] The effects of KU-1/A4, GA, Aβ, or the indicated combinations on neuronal viability were determined by monitoring cell survival using the Live-Dead assay as previously described. […] Digital images from 6 fields per dish were captured, and the number of viable (green) and dead (red) cells counted. All experiments were conducted with duplicate dishes from at least two neuronal preparations for each treatment, with about 1,000 cells analyzed/treatment condition. The data are expressed as the fraction of viable cells calculated from the total number of neurons counted under each treatment condition. The significance of differences between cultures exposed to various treatment conditions was determined using Student's t-test."}, "[4]": {"tested_on": "experimental autoimmune encephalomyelitis (EAE)", "experiment": "Experimental autoimmune encephalomyelitis (EAE) model"}, "[5]": {"conditions": "second study, late treatment regimen"}},
  "note": "pEC50: −log10 of the molar value.",
  "data": [
    {"smiles": "COC1C(O)C(O)C(Oc2ccc3cc(NC(=O)c4ccc(O)c(CC=C(C)C)c4)c(=O)oc3c2C)OC1(C)C", "note": "(centres unmarked) [DHN2]", "values": [
      {"measurement": "cytotoxicity", "setting": "[1]", "value": "neither treatment with DHN1 nor DHN2 resulted in substantial cytotoxicity"}
    ]},
    {"smiles": "COC1=C2C[C@@H](C)C[C@H](OC)[C@H](O)[C@@H](C)/C=C(\\C)[C@H](OC(N)=O)[C@@H](OC)/C=C\\C=C(/C)C(=O)NC(=CC1=O)C2=O", "note": "[GDA, Geldanamycin, reference compound]", "values": [
      {"measurement": "concentrations at which the drug alone was toxic to neurons", "setting": "[2]", "value": "above 20 nM"}
    ]},
    {"smiles": "COC1C(O)C(O)C(Oc2ccc3cc(NC(C)=O)c(=O)oc3c2C)OC1(C)C", "note": "(centres unmarked) [KU-32]", "values": [
      {"measurement": "pEC50", "setting": "[3]", "value": "~9.05"},
      {"measurement": "body weight loss", "setting": "[4]; pilot study, compared to positive control mice", "value": "the magnitude of weight loss is less"},
      {"measurement": "disease severity and relapse", "setting": "[4]; second study, administration a week into the immunization protocol", "value": "reduced disease severity and inhibited disease relapse"},
      {"measurement": "clinical score", "setting": "[4]; second study, early treatment group, scale 0 to 5", "value": "around 0.5"},
      {"measurement": "EAE disease onset and severity", "setting": "[4]; second study, early treatment regimen (days 1, 3, 5, 7)", "value": "no change in disease onset or disease severity"},
      {"measurement": "EAE disease relapse", "setting": "[4]; second study, given early in the immunization protocol", "value": "reduced disease relapse"},
      {"measurement": "clinical scores", "setting": "[4]; [5]", "value": "returned to baseline"},
      {"measurement": "duration of symptoms", "setting": "[4]; [5]", "value": "notably less than in the positive control group"},
      {"measurement": "onset of symptoms", "setting": "[4]; second study, late treatment regimen (i.v. days 6, 8, 10, 12, 14)", "value": "earlier onset of symptoms"}
    ]}
  ]
}
